According to patent US20140271675A1 (Eli Lilly, published 2014):

Legend:
mouse VEGFR3 = target: T1, mouse VEGFR3 (Mouse, UniProt P35917 25-775, limits assumed); test: SPR (Biacore), 25 C
T1 construct: also called VEGFR3 Mouse
T1 sequence (looked up): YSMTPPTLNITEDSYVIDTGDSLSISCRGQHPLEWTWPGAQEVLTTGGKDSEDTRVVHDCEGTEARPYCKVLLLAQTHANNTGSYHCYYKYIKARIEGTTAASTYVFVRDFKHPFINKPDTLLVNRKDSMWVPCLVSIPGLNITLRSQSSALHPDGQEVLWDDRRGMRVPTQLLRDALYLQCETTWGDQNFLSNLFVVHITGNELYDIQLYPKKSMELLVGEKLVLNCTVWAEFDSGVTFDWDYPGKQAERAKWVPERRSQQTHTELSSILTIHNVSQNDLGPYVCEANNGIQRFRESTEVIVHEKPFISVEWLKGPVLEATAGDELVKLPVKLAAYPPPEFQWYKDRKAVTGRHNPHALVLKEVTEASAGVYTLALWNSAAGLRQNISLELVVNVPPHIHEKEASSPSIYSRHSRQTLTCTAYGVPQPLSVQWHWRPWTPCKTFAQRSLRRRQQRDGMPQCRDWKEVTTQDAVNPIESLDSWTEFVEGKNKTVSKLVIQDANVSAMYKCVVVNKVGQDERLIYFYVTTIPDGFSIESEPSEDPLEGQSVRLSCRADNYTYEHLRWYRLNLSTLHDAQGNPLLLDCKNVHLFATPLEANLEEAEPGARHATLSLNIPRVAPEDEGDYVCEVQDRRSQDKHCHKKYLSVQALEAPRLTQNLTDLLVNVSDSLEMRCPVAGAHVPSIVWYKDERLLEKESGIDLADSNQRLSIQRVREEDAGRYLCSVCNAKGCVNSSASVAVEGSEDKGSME

human VEGFR2 = target: T2, human VEGFR2 (Human, UniProt P35968 20-764, limits assumed); test: SPR (Biacore), 25 C
T2 construct: also called VEGFR2 Human

mouse VEGFR1 = target: T3, mouse VEGFR1 (Mouse, UniProt P35969 23-759, limits assumed); test: SPR (Biacore), 25 C
T3 construct: also called VEGFR1 Mouse
T3 sequence (looked up): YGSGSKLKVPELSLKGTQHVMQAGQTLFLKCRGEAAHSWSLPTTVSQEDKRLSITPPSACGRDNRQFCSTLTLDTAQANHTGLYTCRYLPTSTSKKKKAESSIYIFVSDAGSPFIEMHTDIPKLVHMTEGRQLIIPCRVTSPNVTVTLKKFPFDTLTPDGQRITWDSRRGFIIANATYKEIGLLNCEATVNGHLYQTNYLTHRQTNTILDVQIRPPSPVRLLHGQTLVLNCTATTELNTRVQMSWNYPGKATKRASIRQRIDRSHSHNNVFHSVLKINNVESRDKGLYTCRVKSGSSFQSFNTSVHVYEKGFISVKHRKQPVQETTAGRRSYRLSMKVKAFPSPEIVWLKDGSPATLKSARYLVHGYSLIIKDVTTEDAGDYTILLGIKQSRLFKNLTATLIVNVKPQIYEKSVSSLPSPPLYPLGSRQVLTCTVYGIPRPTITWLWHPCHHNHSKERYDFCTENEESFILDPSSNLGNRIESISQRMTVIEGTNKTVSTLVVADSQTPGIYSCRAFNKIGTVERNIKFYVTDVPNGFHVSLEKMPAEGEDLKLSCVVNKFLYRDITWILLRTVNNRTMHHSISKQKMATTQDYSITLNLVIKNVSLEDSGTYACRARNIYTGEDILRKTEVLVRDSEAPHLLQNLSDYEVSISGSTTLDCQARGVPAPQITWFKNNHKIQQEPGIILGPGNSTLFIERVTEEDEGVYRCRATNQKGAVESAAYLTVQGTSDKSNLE

mouse VEGFR2 = target: T4, mouse VEGFR2 (Mouse, UniProt P35918 20-762, limits assumed); test: SPR (Biacore), 25 C
T4 construct: also called VEGFR2 Mouse

human VEGFR3 = target: T5, human VEGFR3 (Human, UniProt P35916 25-776, limits assumed); test: SPR (Biacore), 25 C
T5 construct: also called VEGFR3 Human
T5 sequence (looked up): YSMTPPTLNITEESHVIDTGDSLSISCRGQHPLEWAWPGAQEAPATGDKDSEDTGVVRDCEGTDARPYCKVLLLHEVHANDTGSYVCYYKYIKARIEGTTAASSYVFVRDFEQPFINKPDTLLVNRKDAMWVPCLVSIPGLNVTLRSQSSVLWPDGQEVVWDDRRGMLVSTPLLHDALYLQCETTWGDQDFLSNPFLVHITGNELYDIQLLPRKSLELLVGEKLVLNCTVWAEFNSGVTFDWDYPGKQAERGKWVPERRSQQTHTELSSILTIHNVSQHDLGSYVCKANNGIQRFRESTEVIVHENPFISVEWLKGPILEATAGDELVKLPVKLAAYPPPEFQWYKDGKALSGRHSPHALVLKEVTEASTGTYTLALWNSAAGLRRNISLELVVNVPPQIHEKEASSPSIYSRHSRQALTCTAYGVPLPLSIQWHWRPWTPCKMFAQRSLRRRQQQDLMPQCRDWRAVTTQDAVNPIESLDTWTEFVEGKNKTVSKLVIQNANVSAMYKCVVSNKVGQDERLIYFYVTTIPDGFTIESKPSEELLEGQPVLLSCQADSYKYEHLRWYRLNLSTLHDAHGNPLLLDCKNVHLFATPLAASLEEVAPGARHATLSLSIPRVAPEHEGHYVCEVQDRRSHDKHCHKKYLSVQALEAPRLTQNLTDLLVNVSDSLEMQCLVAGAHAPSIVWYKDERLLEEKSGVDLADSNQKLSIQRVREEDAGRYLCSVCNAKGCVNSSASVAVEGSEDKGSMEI

[1] = target: T6, hVEGFR1-Fc (R&D 321-fl 050/cf) (human, UniProt P17948 27-758); test: competition ELISA, coated hVEGFR1-Fc, competitor biotinylated hVEGFA-165 2 nM (Table 4a experiment)
T6 construct: Bought reagent; also called human sFlt1 (R&D 321-FL/CF); sFlt1; not shown: Fc portion of the bought fusion protein

[2] = target: T6, hVEGFR1-Fc (R&D 321-fl 050/cf); test: competition ELISA, coated hVEGFR1-Fc, competitor biotinylated hPLGF1 4 nM (Table 4b experiment)
[3] = target: T6, hVEGFR1-Fc (R&D 321-fl 050/cf); test: competition ELISA, coated hVEGFR1-Fc, competitor biotinylated hPLGF1 2 nM (Table 4a experiment)
[4] = target: T7, human VEGFR1 (SPR analyte/ligand) (human, UniProt P17948 27-758, limits assumed); test: SPR (Biacore), 25 C, n=6
T7 construct: also called VEGFR1 Human; Flt-1

[5] = target: T6, hVEGFR1-Fc (R&D 321-fl 050/cf); test: competition ELISA, coated hVEGFR1-Fc, competitor biotinylated hVEGFA-165 2 nM (Table 4b experiment)
[6] = target: T7, human VEGFR1 (SPR analyte/ligand); test: SPR (Biacore), 37 C, n=3
cynomolgus VEGFR1 = target: T8, cynomolgus VEGFR1 (Cynomolgus, UniProt A0A2K5VAF2 27-758); test: SPR (Biacore), 37 C, n=3
T8 construct: also called VEGFR1 Cynomolgus

T7 sequence (P17948 27-758 limits assumed): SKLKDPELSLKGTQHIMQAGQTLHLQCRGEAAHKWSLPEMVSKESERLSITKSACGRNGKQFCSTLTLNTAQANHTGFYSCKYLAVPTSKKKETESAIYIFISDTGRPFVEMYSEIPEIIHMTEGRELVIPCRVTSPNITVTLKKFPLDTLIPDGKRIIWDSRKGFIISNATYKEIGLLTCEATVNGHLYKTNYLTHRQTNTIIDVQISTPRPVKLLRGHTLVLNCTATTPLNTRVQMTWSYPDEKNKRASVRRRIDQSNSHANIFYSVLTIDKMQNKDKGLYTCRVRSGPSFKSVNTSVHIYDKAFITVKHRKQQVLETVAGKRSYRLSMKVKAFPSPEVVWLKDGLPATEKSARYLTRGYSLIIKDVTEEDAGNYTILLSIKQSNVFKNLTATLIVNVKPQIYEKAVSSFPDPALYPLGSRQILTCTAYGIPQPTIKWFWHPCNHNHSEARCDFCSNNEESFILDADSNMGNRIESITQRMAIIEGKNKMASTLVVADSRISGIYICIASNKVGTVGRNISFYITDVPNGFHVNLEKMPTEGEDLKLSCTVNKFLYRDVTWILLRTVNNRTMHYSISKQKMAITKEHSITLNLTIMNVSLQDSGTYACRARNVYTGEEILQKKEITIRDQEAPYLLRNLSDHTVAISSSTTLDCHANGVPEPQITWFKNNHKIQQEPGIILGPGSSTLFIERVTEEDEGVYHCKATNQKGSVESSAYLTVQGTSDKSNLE
T6 sequence (P17948 27-758): as the sequence (P17948 27-758 limits assumed) above
mouse VEGFR2, sequence (P35918 20-762 limits assumed): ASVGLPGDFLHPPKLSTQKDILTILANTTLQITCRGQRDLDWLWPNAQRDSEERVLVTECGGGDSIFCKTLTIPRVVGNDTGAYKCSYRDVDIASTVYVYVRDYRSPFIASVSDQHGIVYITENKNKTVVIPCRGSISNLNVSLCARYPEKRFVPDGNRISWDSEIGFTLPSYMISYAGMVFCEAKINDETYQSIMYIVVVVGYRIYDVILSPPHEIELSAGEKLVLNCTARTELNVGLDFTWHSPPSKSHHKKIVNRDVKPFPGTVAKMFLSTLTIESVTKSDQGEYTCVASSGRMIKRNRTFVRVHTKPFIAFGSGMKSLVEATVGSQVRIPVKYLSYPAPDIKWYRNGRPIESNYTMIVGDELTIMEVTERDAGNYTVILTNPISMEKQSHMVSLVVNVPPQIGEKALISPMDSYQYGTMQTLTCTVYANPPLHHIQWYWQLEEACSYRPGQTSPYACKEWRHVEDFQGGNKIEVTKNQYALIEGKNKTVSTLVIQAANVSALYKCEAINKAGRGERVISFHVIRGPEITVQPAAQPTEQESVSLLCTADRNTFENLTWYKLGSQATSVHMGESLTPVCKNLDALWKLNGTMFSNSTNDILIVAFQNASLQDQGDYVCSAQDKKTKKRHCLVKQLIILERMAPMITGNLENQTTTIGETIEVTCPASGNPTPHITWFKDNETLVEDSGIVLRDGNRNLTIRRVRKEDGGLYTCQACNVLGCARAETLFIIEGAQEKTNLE
human VEGFR2, sequence (P35968 20-764 limits assumed): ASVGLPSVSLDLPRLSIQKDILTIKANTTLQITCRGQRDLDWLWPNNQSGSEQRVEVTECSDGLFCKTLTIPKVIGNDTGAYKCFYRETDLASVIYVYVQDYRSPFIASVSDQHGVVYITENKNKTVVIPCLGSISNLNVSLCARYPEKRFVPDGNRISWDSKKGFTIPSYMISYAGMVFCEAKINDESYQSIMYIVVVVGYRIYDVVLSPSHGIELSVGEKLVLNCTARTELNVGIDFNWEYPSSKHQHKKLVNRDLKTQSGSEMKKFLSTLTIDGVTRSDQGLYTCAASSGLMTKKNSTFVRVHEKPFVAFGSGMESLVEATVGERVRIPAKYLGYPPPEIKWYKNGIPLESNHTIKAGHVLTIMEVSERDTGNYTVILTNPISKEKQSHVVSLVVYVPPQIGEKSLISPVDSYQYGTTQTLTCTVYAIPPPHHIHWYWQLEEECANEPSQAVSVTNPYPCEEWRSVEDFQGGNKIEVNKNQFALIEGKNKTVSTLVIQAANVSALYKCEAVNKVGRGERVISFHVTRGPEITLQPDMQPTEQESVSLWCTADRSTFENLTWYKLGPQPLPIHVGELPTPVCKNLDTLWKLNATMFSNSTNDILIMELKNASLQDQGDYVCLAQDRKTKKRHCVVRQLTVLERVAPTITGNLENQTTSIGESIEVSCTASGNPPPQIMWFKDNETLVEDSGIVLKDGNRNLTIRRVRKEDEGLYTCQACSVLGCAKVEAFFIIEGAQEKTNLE

B1: Antibody II (antibody, human IgG4 S228P, kappa, F234A L235A)
heavy: QAQVVESGGGVVQSGRSLRLSCAASGFAFSSYGMHWVRQAPGKGLEWVAVIWYDGSNKYYADSVRGRFTISRDNSENTLYLQMNSLRAEDTAVYYCARDHYGSGVHHYFYYGLDVWGQGTTVTVSSASTKGPSVFPLAPCSRSTSESTAALGCLVKDYFPEPVTVSWNSGALTSGVHTFPAVLQSSGLYSLSSVVTVPSSSLGTKTYTCNVDHKPSNTKVDKRV[human IgG4 Fc with S228P F234A L235A (EU numbers) not shown]
light: [about 200 residues not shown]
notes: also called Ab II; Antibody 2
binding result (mouse VEGFR3): no binding (tested: ~200 nM) | binding result (human VEGFR2): no binding (tested: ~200 nM) | binding result (mouse VEGFR1): no binding (tested: ~200 nM) | binding result (mouse VEGFR2): no binding (tested: ~200 nM) | binding result (human VEGFR3): no binding (tested: ~200 nM) | IC50 [1]: 0.14 nM | IC50 [2]: 0.31 nM | IC50 [3]: 0.43 nM | Kd [4]: ≤ 0.042 nM | koff [4]: 1.42e-05 s⁻¹ | IC50 [5]: 1.02 nM | Kd [6]: 0.74 nM | koff [6]: 0.00024 s⁻¹ | Kd (cynomolgus VEGFR1): 0.554 nM | koff (cynomolgus VEGFR1): 8.3e-05 s⁻¹
